Experimental data published in article PMC4336329 (PLoS ONE, 2015).
Hit rate of the full screen: of about 310,000 compounds, about 14,000 (4.5%) showed an effect of 50% or more. The effect is printed as a negative number. This is one part of the list.

Target: human ether-à-go-go-related gene (hERG) potassium channel (human, UniProt Q12809)
Experiment: primary screen, population patch clamp on CHO cells stably expressing hERG
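Further: peak tail current of the secondary pulse compared with the same well before compound.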

human ether-à-go-go-related gene (hERG) potassium channel, sequence (Q12809 whole entry, looked up): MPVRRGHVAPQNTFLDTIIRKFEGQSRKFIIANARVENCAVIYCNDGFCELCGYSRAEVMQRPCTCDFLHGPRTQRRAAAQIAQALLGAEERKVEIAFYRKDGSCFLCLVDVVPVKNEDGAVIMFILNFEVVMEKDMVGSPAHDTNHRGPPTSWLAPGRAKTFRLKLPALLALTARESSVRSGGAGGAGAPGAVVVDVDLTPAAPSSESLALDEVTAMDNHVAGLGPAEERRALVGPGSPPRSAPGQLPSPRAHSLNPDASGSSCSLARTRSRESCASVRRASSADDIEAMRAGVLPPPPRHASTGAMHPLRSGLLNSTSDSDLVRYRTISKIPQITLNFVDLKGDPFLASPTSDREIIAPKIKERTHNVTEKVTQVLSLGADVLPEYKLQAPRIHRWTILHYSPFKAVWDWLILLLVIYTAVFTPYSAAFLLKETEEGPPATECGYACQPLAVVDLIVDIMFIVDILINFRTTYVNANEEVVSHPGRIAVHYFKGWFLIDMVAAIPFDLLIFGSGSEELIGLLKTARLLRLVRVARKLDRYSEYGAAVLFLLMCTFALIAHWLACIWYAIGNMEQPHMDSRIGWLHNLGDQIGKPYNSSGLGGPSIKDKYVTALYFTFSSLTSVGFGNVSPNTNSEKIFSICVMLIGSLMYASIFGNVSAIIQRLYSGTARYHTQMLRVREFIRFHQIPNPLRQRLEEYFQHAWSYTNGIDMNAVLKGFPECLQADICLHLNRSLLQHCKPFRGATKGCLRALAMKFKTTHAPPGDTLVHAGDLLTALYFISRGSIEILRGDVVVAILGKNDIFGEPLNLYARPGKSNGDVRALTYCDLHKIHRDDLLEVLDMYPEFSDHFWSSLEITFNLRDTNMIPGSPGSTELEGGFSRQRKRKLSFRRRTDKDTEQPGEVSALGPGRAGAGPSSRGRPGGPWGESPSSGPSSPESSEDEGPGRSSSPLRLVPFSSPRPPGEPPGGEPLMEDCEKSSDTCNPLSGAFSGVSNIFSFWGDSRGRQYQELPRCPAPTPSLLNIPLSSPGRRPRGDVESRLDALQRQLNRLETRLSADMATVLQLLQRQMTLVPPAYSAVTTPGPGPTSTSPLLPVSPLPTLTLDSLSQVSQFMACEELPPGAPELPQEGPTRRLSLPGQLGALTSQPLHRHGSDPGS

| SMILES | hERG current change (%, negative = inhibition) at 10uM |
| --- | --- |
| O=C(O)CCC(=O)NCCc1cccc(Cl)c1 | 8.22% |
| COC(=O)c1ccc(C(=O)OC)c(NC(=O)c2cnc3n(c2=O)CCS3)c1 | -2.57% |
| CCOc1ncccc1C(=O)Nc1ccc(OC)c(S(=O)(=O)N2CCCCC2)c1 | 18.4% |
| CC(=O)c1cccc(N2C(=NC(=O)CCc3ccccc3)SC3CS(=O)(=O)CC32)c1 (centres unmarked) | -5.41% |
| CN1CCN(CC/C=C2\c3ccccc3Sc3ccc(S(=O)(=O)N(C)C)cc32)CC1 | -58% |
| CCCCc1ccc(NC(=S)N2CCCC(CO)C2)cc1 (centres unmarked) | -5.21% |
| CC(C)(C)n1nc2c(c1NC(=O)c1ccccc1C(F)(F)F)CS(=O)(=O)C2 | 25.4% |
| CCOc1ccccc1NC(=O)COc1coc(CN2CCc3ccccc32)cc1=O | 4.83% |
| CN(C(=O)CSCC(=O)O)C1CCCCC1 | -1.9% |
| O=C(NCCc1ccccn1)C1CCCN1S(=O)(=O)c1ccc(Cl)cc1 (centres unmarked) | 6.89% |
| O=C(O)C1CCCCN1S(=O)(=O)c1ccccc1 (centres unmarked) | 15.1% |
| CC(C)(C)NC(=O)c1cc2c(ccc3ccccc32)oc1=O | 27.1% |
| Cc1occc1C(=O)N1CCCc2ccccc21 | 5.44% |
| COc1ccccc1CCN1CCCC(CN(C)C(=O)CCC(N)=O)C1 (centres unmarked) | 22.5% |
| CC1CCC(C(C)C)C(OC(=O)COC(=O)c2ccc(N)cc2)C1 (centres unmarked) | 6.47% |
| NC(=O)COc1ncnc2scc(-c3ccc(F)cc3)c12 | 2.16% |
| CCOc1cc(C2C(C(=O)c3ccccc3)=C(C(=O)OC)Nc3nnnn32)ccc1O (centres unmarked) | 8.69% |
| Clc1ccc2nc(SCc3nnc(-c4ccccc4)o3)[nH]c2c1 | -18.3% |
| CCn1c(SCC(=O)c2ccc3ccccc3c2)nnc1-c1cccs1 | -8.29% |
| Cc1ccc(NC(=O)COc2ccc(Br)cc2C)cc1 | 0.803% |
| COc1ccc(-c2noc(CCC(=O)Nc3cccc(C)c3)n2)cc1 | 7.35% |
| Cc1cc(C)cc(OCC(=O)Nc2cc(C)on2)c1 | 15.9% |
| COc1cc(C)nc(N2CCCC(C(=O)Nc3cccc(Cl)c3C)C2)n1 (centres unmarked) | 0.916% |

| SMILES | hERG current change (%, negative = inhibition) at 10uM |
| --- | --- |
| O=C(O)c1ccc(CSc2nnc(Cc3ccccc3)o2)cc1 | -5.04% |
| CCCCCN(C(=O)CCC(=O)OCc1ccccc1C)c1c(N)n(CCCC)c(=O)[nH]c1=O | -41.1% |
| Cc1cccc2nc(CNc3ccc(F)cc3)cn12 | -16.1% |
| CSc1ccccc1C(=O)N1CCN(c2ccc(F)cc2)CC1 | -17.5% |
| CC(C)Oc1c(Cl)cc(CNC(C)(C)CO)cc1Cl | 0.775% |
| O=C(C1CC1)N1CCc2cc(Br)cc(S(=O)(=O)NCc3ccco3)c21 | -41% |
| COc1ccc(NC(=O)c2cn(CCC#N)nc2-c2cccc([N+](=O)[O-])c2)cc1 | -45.5% |
| CCOC(=O)C1CCCN(S(=O)(=O)c2ccc3c(c2)N(C)C(=O)CC(=O)N3C)C1 (centres unmarked) | 9.56% |
| CSc1ccc(S(=O)(=O)NCC(=O)OCC(=O)NCC2CCCO2)cc1[N+](=O)[O-] (centres unmarked) | -2.8% |
| O=C(COC(=O)/C=C/c1ccc(Cl)cc1)Nc1ccccc1-c1ccccc1 | 13.9% |
| CCCCn1c(C)csc1=Nc1cccnc1 | -2.02% |
| COc1ccc(CN(C(=O)c2nsc(Cl)c2Cl)C(C(=O)NC2CCCC2)c2ccc(OC)cc2)cc1 (centres unmarked) | -21.1% |
| O=C(CCc1ccccc1)Nc1nnc(-c2ccccn2)o1 | -2.73% |
| Cc1ccc(CN2CCSc3ccc(C(=O)NCC4CCCO4)cc32)cc1 (centres unmarked) | -10.4% |
| Cn1c(=O)n(CCO)c(=O)c2c1nc(Br)n2Cc1ccccc1 | 9.83% |
| COC(=O)COc1ccc(S(=O)(=O)NC2CCCCCC2)cc1 | -5.34% |
| COc1cc(/C=C(\C#N)c2ccccn2)ccc1OCC(=O)Nc1cccc(C(F)(F)F)c1.Cl | 0.582% |
| Cc1ccc(NC(=O)c2c(C)nc3ccccn23)cc1C | 24.1% |
| COc1ccc(-n2c(=O)/c(=C\c3cccs3)s/c2=C(/C#N)C(=O)NCCN2CCOCC2)cc1 | 12.5% |
| CCOC(=O)C1=C(C)OC(N)=C(C#N)C1c1ccc(OC)c(CSc2ccccn2)c1 (centres unmarked) | -5.44% |
| O=C(CCC1CCCC1)N1CCN(C(=O)C2CC2)CC1 | 5.86% |
| CCCCn1c(N)c(N(CCC(C)C)C(=O)c2[nH]c(C)c(C(=O)OCC)c2C)c(=O)[nH]c1=O | -3.35% |
| O=C(c1cc(COc2cccc(C(F)(F)F)c2)on1)N1CCC(Oc2cccnc2)CC1 | -64.1% |

| SMILES | hERG current change (%, negative = inhibition) at 10uM |
| --- | --- |
| Cc1cccc(C(=O)Nc2ccc(C(=O)N/N=C/c3cccc(C)n3)cc2)c1 | 11.9% |
| Cc1ccccc1NC(=O)CNc1ccccc1N1CCCCC1 | 11.9% |
| CSc1nc(-c2ccco2)nn1C(=O)Cc1ccccc1 | 0.386% |
| Nc1nc(SCC(=O)Nc2ccc(Oc3ccccc3)cc2)n[nH]1 | -4.09% |
| COc1cc(C2=NOC(C(=O)N3CCCc4ccccc43)C2)cc(OC)c1OC (centres unmarked) | 1.24% |
| O=C(Nc1ccc(Cl)c(Cl)c1)OCCNC(=O)c1ccncc1 | -4.86% |
| Cc1ccc(C2(c3ccccc3)NC(=O)N(CC(=O)N3CC(=O)Nc4ccccc43)C2=O)cc1C (centres unmarked) | -25.6% |
| COC(=O)[C@@H]1C[C@@]2(O)[C@H](O)[C@H](O)[C@H](O)C[C@H]2N1Cc1cc(F)ccc1F | 17.7% |
| CCC(=O)NN1CCc2cc3ccc(C)cc3nc21 | 14.7% |
| COc1ccccc1-c1cc(C(F)(F)F)c(C#N)c(=O)[nH]1 | 8.97% |
| CSCCC(NC(=O)c1ccccc1Br)C(=O)N1CCC(C)CC1 (centres unmarked) | 16.6% |
| Cc1nc(C(=O)NC2CCCCC2)sc1C1(C)CC(c2cccnc2)=NO1 (centres unmarked) | 2.76% |
| COc1ccc(CCN(C)C(=O)CCNS(=O)(=O)c2ccccc2C(F)(F)F)cc1OC | 9.73% |
| COc1cc(CNCCCN2CCOCC2)ccc1OCC(=O)Nc1cccc(C(F)(F)F)c1.Cl | -56.6% |
| CCOc1ccc(N(C)C(=O)CCc2nnc3ccc(N4CCOCC4)nn23)cc1 | 19% |
| O=C(CSc1nc2ncccc2[nH]1)Nc1ccc2c(c1)OCCO2 | 2.63% |
| CCOc1ccccc1NC(=O)CCS(=O)(=O)c1ccc2c(c1)CCN2C(C)=O | 17.8% |
| COc1cc2[nH]c3c(N4CCN(c5ccccn5)CC4)ncnc3c2cc1OC | 13.1% |
| CC(C)CCn1c(O)c(N=NC(=O)c2ccco2)c2ccccc21 | 4.25% |
| COc1ccc(-c2cc(C(F)(F)F)nc(SCC(=O)Nc3ccc4c(c3)OCO4)n2)cc1OC | -9.52% |
| CCNC(=S)N/N=C/c1cccc(C)c1 | 15.6% |
| COC(=O)c1ccccc1NC(=O)Cn1c(SC)c(F)cnc1=O | -0.0708% |
| CCOCCc1nn2c(=O)cc(CSCC(=O)Nc3ccccc3)nc2s1 | 1.66% |

| SMILES | hERG current change (%, negative = inhibition) at 10uM |
| --- | --- |
| CCc1cc2cc(C(=O)Nc3ccc(F)cc3)sc2s1 | 3.32% |
| COC(=O)C1=C(c2cc3ccccc3s2)C[C@@H]2CC[C@H]1N2C(=O)NC1CCCCC1 | -23.4% |
| COc1cc2ccc(=O)oc2c(O)c1OCC=C(C)C | -0.468% |
| Cc1nn(C)c(NC(=O)c2ccc(Cl)cc2)c1Cl | 14.8% |
| Cc1ccc(-n2nc3c(c2NC(=O)C2CC2)CS(=O)(=O)C3)cc1C | -11.2% |
| Cc1ccc2nc3ccc(N4CCCCCCC4)nn3c(=O)c2c1 | -18.1% |
| O=C(Cn1cncn1)N/N=C/c1ccccc1O | 6.77% |
| CC(C)CNC(=O)C(=O)NCCC1CCCCN1S(=O)(=O)c1cccs1 (centres unmarked) | -19% |
| O=C1OC(/C=C/c2ccccc2)=NC/1=C\c1cccnc1 | 19.4% |
| CCCOc1c(Br)cc(C2C3=C(CCCC3=O)N(CC)C3=C2C(=O)CCC3)cc1OC | -33.6% |
| COc1ccc(CN(C(=O)c2ccccc2Br)C2CCS(=O)(=O)C2)cc1 (centres unmarked) | -6.5% |
| CCCC(=O)Nc1cccc(Oc2ccc3c(c2)C(=O)NC3=O)c1 | -5.14% |
| Cc1ccsc1C1C2=C(CC(C)(C)CC2=O)Nc2ncnn21 (centres unmarked) | 1.79% |
| O=C(NNS(=O)(=O)c1ccc(F)cc1)c1cccc(O)c1 | 16.5% |
| COc1cc(/C=N/NC(=O)c2nnn(-c3nonc3N)c2-c2cccs2)ccc1O | 3.14% |
| CCNC(=O)COc1ccc(-c2ccccc2)cc1 | -19.4% |
| COc1cc2c(cc1OC)C(=O)CCS2 | -7.32% |
| CNCc1ccccc1Sc1ccc(O)c(O)c1.O=C([O-])/C=C\C(=O)[O-] | -38.4% |
| CCCCn1c(N2CCCC2)nc2c1c(=O)[nH]c(=O)n2C | 6.34% |
| COc1cccc(NC(=O)CC2SC(=Nc3ccccc3)NC2=O)c1 (centres unmarked) | -0.157% |
